According to ChEMBL document CHEMBL1201862, “PubChem BioAssay data set” (2004):

Each compound was assayed on NCI-H322M (assay: NCI tumour cell line growth inhibition, 48 h).

SMILES | GI50
Cc1c2oc3c(C)ccc(C(=O)NC4C(=O)NC(C(C)C)C(=O)N5CCCC5C(=O)N(C)CC(=O)N(C)C(C(C)C)C(=O)OC4C)c3nc-2c(C(=O)NC2C(=O)NC(C(C)C)C(=O)N3CCCC3C(=O)N(C)CC(=O)N(C)C(C(C)C)C(=O)OC2C)c(N)c1=O (centres undefined) (I: TVP[Sar][NMeV] / II: TVP[Sar][NMeV]; ester I:1-I:C, II:1-II:C; linker I:N-II:N via Actinocin(9to1); configuration not given here) | active: 0.000604 µM
CC(C)C(=O)/C=C/c1ccccc1 | inactive: > 100 µM
OC(c1ccc(-c2ccccc2)cc1)(c1ccc(-c2ccccc2)cc1)c1ccc(-c2ccccc2)cc1 | inactive: > 100 µM
CC(=O)OCC(=O)O[C@@H]1[C@H]2[C@@H](OC(=O)c3ccccc3)[C@@H](C)C[C@]2(O)[C@H](OC(C)=O)[C@@]2(C)C[C@]1(OC(C)=O)C[C@H]1C(=O)C(C)(C)[C@@H](OC(C)=O)[C@@H]12 | inactive: > 25 µM
Cc1c(NC(=S)Nc2ccc([N+](=O)[O-])cc2)c(=O)n(-c2ccccc2)n1C | inactive: > 100 µM
O=C(O)c1ccc(NNc2cc(=O)[nH]c(=O)[nH]2)cc1 | inactive: > 100 µM
COC(=O)NN(C(=O)OC)c1c(-c2ccccc2)nc(SC)n1N | inactive: > 100 µM
O=C(c1ccccc1)c1ccc2nc3n(c2c1)C(c1c(Cl)cccc1Cl)SC3 (centres undefined) | inactive: 10.3 µM
N#CC12C(=O)N3C(=NC(c4ccco4)NC3c3ccco3)C1(C#N)C(c1ccco1)NC1=C2CCCC1 (centres undefined) | inactive: > 100 µM
Nc1ccc2ccc(-c3ccc[nH]3)nc2n1 | inactive: > 100 µM
O=C(c1nsc(Cl)c1Cl)N1CCCCC1 | inactive: > 100 µM
O=C(OCCNC(=O)N1CC1)OCCNC(=O)N1CC1 | inactive: > 10 µM
C/C=C(\C)c1cc(=O)c2c(C)cc3c(c2o1)C(OC)(OC(C)=O)c1c(O)c(C2CC(C)(N(C)C)C(OC(C)=O)C(C)O2)cc(C2CC(N(C)C)C(OC(C)=O)C(C)O2)c1C3=O (centres undefined) | active: 0.618 µM
C/C(=N\NC(=O)CC(=O)N(C(=O)c1ccc(Cl)cc1)c1ccc(C)cc1)c1ccccc1O | inactive: 4.32 µM
CC1=C/C(=N\OCC(=O)O)CC(c2ccc(C(C)C)cc2)C1 (centres undefined) | inactive: > 100 µM
Cn1c(=O)c(/N=N/c2c(=O)n(C)c(=O)n3c2[nH]c2ccccc23)c2[nH]c3ccccc3n2c1=O | inactive: 90.8 µM
CCC1CN2CCC1CC2 (centres undefined) | inactive: > 100 µM
C=C1C(=O)OC2C1CC(OC(C)=O)/C(C)=C/CCC1(C)OC21 (centres undefined) | inactive: > 100 µM
CN(C)CCSc1cc(-c2ccccc2)c2ccccc2n1 | inactive: 18.4 µM
O=C1CC(c2cccc(Br)c2)n2cccc21 (centres undefined) | inactive: > 100 µM
FC(F)(F)C1(C(F)(F)F)OC(Cl)(Cl)C(Cl)(Cl)O1 | inactive: > 10 µM
O=C(NC1=NC2C=CC([N+](=O)[O-])=CC2S1)C(=O)Nn1c(S)nc2ccccc2c1=O (centres undefined) | inactive: 45.4 µM

SMILES | GI50
Cc1c(NC(=O)CSC(=S)N(C)C)c(=O)n(-c2ccccc2)n1C | inactive: > 100 µM
CCc1cn(C2CC(CO)C(CO)S2)c(=O)[nH]c1=O (centres undefined) | inactive: > 100 µM
CCCCCCCCCCCC(=O)OCC1OC(n2cc(F)c(=O)[nH]c2=O)C(N)C(O)C1O (centres undefined) | inactive: > 100 µM
NCCCN1CCN(CC(=O)O)CCN(CCCN)CCN(CC(=O)O)CC1 | inactive: > 81.5 µM
C#Cc1c(C)c(/C=C/C(C)=C/C=C/C(C)=C/C(=O)OC)n(C)c1C | inactive: > 100 µM
C[N+]1(C)CC[N+](C)(C)[BH-]1C(O)O | inactive: > 100 µM
O=c1cc(NNc2cccc3ccccc23)[nH]c(=O)[nH]1 | inactive: 16.5 µM
Cc1cc2c(C)nn(Cc3ccccc3)c2c(C(=O)O)c1C | inactive: > 100 µM
CC(=O)Oc1ccc2c(c1)CC[C@@H]1C2CC[C@]2(C)C(=O)NC(=O)CC12 (some centres undefined) | inactive: > 100 µM
O=N/N=c1\o[n-][n+](CCc2ccccc2)c1Cc1/c(=N/N=O)o[n-][n+]1CCc1ccccc1 | inactive: 30.3 µM
NC(CCCCNCc1ccccc1O)C(=O)O (centres undefined) | inactive: > 100 µM
O=C1CCC2(c3ccccc3)Nc3ncccc3N12 (centres undefined) | inactive: > 100 µM
CN(C)C(=O)/N=C1\SC(=N\c2ccccc2)/C(=N/c2ccccc2)N1c1ccc([N+](=O)[O-])cc1 | inactive: > 100 µM
O=C(Nc1cc([N+](=O)[O-])cc([N+](=O)[O-])c1)OC1C2CCC1C1OC1C2 (centres undefined) | inactive: > 50 µM
COC(=O)c1c2c(cc3c1CCC3)CCC2 | inactive: > 100 µM
CN/C(=N\C#N)N(Cc1ccccc1)Cc1ccccc1 | inactive: > 100 µM
CCCCCCCCCCCCCCCCOP(=O)([O-])OCC[N+](C)(C)C1CC(C)(C)N(O)C(C)(C)C1 | inactive: > 100 µM
CN1CCC(OC(=O)Oc2ccccc2)(c2ccccc2)CC1 | inactive: 15.2 µM
COP(=O)(OC)OCN(C)CC/C=C(\C)CC/C=C(\C)CCC=C(C)C | inactive: 14.4 µM
CCN(CC)CCOc1ccc(N2Cc3cc(OC)c(OC)cc3C2=O)cc1 | inactive: > 100 µM
Cc1ccc(S(=O)(=O)N(CC(O)COc2ccccc2)c2c(F)cccc2F)cc1 (centres undefined) | inactive: 27.6 µM
CCOc1cc2c(cc1O)C(N)C[C@@H]1[C@@H]2CC[C@]2(C)[C@@H](O)CC[C@@H]12 (some centres undefined) | inactive: 65 µM

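Compound exposure: 48 hours, 5 concentrations, 96-well plates. GI50 marks 50% less growth.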 Active and inactive are the calls of the source. Rule as the data show it: active = GI50 up to about 1.1 µM and inactive = higher. Numbered stars: 1 amine (or outer) side, 2 acyl side, 3 side chain; on linkers, the order of the positions; unused ones are H or OH. Bridge positions count the residues as written; N and C are the ends. Square brackets hold non-standard residues; d marks the D form. Peptide text beside a SMILES is read from it. I, II: the chains in the order shown. Actinocin(9to1) = Cc1c2oc3c(C)ccc(C(=O)[*:1])c3nc-2c(C(=O)[*:2])c(N)c1=O; NMeV = CN[CH](C(=O)O)C(C)C; Sar = CNCC(=O)O
